In paper PMC4538844:
No constants are given. Whether binding was seen depends on the method and setting. Binding seen in cells or lysates may run through a third protein. Some binding calls cover weakened binding; strength is not graded here. Sequences can lack the tags named with a protein.

Protein sequences, listed by entry. Tags and fused reporters are not part of them.
UniProt Q99755: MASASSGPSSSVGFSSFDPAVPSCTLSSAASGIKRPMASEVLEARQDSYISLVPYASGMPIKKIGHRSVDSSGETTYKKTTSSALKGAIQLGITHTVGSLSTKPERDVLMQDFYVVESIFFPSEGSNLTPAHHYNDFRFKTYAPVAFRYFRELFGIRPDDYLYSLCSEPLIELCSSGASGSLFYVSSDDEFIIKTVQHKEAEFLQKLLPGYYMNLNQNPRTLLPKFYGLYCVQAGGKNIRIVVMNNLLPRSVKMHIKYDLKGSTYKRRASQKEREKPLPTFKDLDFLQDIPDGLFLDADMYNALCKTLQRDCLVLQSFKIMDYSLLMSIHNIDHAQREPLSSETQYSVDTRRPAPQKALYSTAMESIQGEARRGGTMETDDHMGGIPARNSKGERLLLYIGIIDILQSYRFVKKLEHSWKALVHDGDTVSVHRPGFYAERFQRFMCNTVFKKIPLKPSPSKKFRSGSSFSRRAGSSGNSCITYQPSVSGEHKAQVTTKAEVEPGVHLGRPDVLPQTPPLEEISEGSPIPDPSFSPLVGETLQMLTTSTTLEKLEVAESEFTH

T1: GST-RRM domain of Star-PAP (human) (UniProt Q9H6E5)
T1 sequence: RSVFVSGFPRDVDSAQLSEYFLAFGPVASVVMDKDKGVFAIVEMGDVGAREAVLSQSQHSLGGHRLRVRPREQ

T2: GST-Star-PAP (FL) (human) (UniProt Q9H6E5)
T2 sequence: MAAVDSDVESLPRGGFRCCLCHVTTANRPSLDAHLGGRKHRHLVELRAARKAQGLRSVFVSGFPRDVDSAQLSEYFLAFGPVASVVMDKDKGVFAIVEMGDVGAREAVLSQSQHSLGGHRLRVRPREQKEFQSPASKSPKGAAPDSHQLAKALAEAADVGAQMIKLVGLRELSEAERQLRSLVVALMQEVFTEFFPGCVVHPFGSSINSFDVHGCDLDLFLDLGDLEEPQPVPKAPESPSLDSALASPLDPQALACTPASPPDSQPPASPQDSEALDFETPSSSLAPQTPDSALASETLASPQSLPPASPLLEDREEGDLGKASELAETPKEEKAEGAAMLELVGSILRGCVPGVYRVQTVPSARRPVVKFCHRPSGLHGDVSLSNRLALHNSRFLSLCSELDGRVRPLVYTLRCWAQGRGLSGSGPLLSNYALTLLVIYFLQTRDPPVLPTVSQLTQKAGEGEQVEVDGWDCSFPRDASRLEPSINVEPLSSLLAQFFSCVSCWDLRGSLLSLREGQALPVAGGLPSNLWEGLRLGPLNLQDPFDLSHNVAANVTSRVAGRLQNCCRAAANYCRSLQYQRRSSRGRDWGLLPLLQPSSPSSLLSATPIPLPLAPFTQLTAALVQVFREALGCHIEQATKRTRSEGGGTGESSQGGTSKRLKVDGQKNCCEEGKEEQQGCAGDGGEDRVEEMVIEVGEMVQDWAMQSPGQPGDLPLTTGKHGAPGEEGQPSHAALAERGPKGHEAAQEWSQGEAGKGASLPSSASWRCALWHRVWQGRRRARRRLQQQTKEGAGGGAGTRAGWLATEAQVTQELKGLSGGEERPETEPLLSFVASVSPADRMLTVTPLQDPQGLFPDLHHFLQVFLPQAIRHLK

T3: FLAG-Star-PAP^WT (human) (UniProt Q9H6E5)
T3 sequence: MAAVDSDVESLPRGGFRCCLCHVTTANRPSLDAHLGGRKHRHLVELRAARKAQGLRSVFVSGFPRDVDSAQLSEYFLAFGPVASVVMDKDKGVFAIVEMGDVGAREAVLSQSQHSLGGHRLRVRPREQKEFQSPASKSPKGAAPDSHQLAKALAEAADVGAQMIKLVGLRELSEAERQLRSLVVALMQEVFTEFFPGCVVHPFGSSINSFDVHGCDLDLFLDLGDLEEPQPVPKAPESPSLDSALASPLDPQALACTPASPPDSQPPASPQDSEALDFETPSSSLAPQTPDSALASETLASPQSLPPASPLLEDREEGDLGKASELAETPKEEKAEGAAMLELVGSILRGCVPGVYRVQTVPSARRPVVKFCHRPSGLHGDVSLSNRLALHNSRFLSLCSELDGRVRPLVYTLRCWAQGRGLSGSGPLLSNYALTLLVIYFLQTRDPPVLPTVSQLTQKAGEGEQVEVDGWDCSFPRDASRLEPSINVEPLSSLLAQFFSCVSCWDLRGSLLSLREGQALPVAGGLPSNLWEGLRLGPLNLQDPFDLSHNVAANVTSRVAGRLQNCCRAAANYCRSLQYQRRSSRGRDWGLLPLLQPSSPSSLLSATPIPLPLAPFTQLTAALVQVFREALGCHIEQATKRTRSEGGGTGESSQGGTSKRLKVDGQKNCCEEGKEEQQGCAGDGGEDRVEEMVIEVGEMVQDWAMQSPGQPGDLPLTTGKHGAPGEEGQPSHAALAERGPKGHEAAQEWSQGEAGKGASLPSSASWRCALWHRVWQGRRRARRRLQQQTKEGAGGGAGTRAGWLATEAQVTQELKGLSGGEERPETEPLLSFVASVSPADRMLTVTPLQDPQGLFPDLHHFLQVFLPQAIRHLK

T4: FLAG-Star-PAP^S6A (human) (UniProt Q9H6E5)
T4 sequence: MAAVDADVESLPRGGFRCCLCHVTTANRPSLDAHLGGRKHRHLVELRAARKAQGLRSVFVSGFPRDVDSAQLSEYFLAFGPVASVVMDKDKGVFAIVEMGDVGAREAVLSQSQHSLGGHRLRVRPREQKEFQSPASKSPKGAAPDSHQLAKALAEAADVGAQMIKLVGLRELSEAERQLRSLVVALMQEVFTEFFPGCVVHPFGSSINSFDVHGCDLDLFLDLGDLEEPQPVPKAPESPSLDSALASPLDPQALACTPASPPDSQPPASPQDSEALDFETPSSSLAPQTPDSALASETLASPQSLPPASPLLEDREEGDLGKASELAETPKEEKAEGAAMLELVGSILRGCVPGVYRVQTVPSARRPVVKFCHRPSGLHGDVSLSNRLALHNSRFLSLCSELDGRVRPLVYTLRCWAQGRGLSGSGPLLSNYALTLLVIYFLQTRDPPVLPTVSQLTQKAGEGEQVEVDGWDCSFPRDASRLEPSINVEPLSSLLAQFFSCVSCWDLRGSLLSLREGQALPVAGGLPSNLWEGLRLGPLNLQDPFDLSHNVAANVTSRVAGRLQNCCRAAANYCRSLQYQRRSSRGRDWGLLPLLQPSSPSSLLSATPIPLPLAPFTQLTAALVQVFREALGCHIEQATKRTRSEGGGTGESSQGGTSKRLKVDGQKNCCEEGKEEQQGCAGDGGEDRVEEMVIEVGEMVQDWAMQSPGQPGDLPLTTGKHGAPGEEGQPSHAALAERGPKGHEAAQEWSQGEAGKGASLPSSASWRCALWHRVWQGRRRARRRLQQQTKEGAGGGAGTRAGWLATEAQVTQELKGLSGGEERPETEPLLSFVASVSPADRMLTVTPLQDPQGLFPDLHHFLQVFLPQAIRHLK

T5: FLAG-Star-PAP^ΔZF (human) (UniProt Q9H6E5)
T5 sequence: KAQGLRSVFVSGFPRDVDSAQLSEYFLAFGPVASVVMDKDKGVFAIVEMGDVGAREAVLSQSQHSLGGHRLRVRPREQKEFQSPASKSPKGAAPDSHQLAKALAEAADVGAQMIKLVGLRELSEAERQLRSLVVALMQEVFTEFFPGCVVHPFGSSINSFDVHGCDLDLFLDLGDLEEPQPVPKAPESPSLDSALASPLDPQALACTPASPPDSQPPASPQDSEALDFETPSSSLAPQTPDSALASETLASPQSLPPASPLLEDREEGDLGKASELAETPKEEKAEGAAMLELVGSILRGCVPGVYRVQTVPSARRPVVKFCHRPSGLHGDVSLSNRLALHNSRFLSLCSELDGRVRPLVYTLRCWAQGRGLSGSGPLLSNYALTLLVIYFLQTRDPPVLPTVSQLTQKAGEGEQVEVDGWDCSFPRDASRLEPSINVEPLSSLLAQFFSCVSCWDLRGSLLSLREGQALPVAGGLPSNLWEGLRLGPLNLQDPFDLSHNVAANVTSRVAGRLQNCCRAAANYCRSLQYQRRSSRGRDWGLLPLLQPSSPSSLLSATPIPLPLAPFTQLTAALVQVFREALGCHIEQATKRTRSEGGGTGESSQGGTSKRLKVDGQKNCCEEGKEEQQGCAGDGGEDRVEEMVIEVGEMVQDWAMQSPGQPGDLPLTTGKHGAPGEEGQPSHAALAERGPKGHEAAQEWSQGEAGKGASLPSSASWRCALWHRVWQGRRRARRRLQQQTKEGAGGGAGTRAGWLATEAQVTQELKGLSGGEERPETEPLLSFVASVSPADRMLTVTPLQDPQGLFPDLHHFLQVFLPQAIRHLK

T6: FLAG-Star-PAP^S6E (human) (UniProt Q9H6E5)
T6 sequence: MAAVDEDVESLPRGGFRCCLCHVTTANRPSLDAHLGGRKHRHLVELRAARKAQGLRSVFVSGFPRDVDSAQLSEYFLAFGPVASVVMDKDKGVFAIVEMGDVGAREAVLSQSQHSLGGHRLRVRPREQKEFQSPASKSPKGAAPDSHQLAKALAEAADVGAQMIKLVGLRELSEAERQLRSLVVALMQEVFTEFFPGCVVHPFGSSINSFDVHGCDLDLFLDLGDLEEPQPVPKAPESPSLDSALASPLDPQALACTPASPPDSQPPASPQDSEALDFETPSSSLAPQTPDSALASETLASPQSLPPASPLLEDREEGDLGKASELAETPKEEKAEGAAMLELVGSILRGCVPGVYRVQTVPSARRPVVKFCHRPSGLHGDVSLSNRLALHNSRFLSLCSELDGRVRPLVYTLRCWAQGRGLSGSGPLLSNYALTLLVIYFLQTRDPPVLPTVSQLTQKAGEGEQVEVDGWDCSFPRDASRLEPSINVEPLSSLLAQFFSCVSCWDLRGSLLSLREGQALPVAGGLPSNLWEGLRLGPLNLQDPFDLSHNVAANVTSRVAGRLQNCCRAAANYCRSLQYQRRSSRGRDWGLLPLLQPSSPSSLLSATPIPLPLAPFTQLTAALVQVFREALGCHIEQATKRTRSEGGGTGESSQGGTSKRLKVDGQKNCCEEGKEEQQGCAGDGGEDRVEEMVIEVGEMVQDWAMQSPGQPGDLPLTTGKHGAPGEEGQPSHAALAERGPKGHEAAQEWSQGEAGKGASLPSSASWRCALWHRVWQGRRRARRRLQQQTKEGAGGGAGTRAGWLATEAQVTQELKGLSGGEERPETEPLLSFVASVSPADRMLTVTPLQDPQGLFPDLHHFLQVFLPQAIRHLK


Columns and labels:
[1] = molecular target: T1, GST-RRM domain of Star-PAP (human); assay: pull-down; GST-Star-PAP (FL, ZF, RRM, ZF-RRM) immobilised on glutathione-Sepharose beads from E. coli lysates, washed, incubated with E. coli extract with overexpressed His-PIPKIα; TEN 100 buffer (20 mM Tris pH 7.5, 0.1 mM EDTA, 100 mM NaCl), with DNaseI and RNaseA; only the target purified
[2] = molecular target: T2, GST-Star-PAP (FL) (human); assay: as above
[3] = molecular target: T3, FLAG-Star-PAP^WT (human); assay: co-IP; IP as in Figure 2D from HEK 293 cells after knockdown of CKIα
[4] = molecular target: T4, FLAG-Star-PAP^S6A (human); assay: co-IP; anti-FLAG IP from lysates of HEK 293 cells with transiently expressed FLAG-Star-PAP forms, blots for associated endogenous proteins; buffer A (100 mM KCl, 5 mM EDTA, 5% NP-40, RNase A); also after tBHQ or DMSO treatment, control siRNA
[5] = molecular target: T5, FLAG-Star-PAP^ΔZF (human); assay: as above
[6] = molecular target: T3, FLAG-Star-PAP^WT (human); assay: as above
[7] = molecular target: T6, FLAG-Star-PAP^S6E (human); assay: as above
[8] = molecular target: T4, FLAG-Star-PAP^S6A (human); assay: co-IP; IP from HEK 293 cells with stable transfection of FLAG-Star-PAP^S6A (Supplementary Figure S4E and F)
[9] = molecular target: T3, FLAG-Star-PAP^WT (human); assay: condition: only cells treated with the CKI inhibitor CKI7; co-IP; IP as in Figure 2D from HEK 293 cells treated with the CKI inhibitor CKI7 (100 μM, 3 h)

| binding [1] | binding [2] | binding [4] | binding [5] | binding [6] | binding [7] | binding [8] | binding [9] | Molecule | binding [3] |
| --- | --- | --- | --- | --- | --- | --- | --- | --- | --- |
| no binding | binds | – | – | – | – | – | – | His-PIPKIα (from UniProt Q99755 1-562) (enzyme) | – |
| – | – | no binding | no binding | binds | binds | no binding | no binding | PIPKIα (endogenous) (from UniProt Q99755 1-562) (enzyme) | no binding (condition: after knockdown of CKIα) |
| – | – | binds | – | binds | binds | – | – | CPSF 160 (protein, UniProt Q10570 1-1443) MYAVYKQAHPPTGLEFSMYCNFFNNSERNLVVAGTSQLYVYRLNRDAEALTKNDRSTEGKAHREKLELAASFSFFGNVMSMASVQLAGAKRDALLLSFKDAKLSVVEYDPGTHDLKTLSLHYFEEPELRDGFVQNVHTPRVRVDPDGRCAAMLVYGTRLVVLPFRRESLAEEHEGLVGEGQRSSFLPSYIIDVRALDEKLLNIIDLQFLHGYYEPTLLILFEPNQTWPGRVAVRQDTCSIVAISLNITQKVHPVIWSLTSLPFDCTQALAVPKPIGGVVVFAVNSLLYLNQSVPPYGVALNSLTTGTTAFPLRTQEGVRITLDCAQATFISYDKMVISLKGGEIYVLTLITDGMRSVRAFHFDKAAASVLTTSMVTMEPGYLFLGSRLGNSLLLKYTEKLQEPPASAVREAADKEEPPSKKKRVDATAGWSAAGKSVPQDEVDEIEVYGSEAQSGTQLATYSFEVCDSILNIGPCANAAVGEPAFLSEEFQNSPEPDLEIVVCSGHGKNGALSVLQKSIRPQVVTTFELPGCYDMWTVIAPVRKEEEDNPKGEGTEQEPSTTPEADDDGRRHGFLILSREDSTMILQTGQEIMELDTSGFATQGPTVFAGNIGDNRYIVQVSPLGIRLLEGVNQLHFIPVDLGAPIVQCAVADPYVVIMSAEGHVTMFLLKSDSYGGRHHRLALHKPPLHHQSKVITLCLYRDLSGMFTTESRLGGARDELGGRSGPEAEGLGSETSPTVDDEEEMLYGDSGSLFSPSKEEARRSSQPPADRDPAPFRAEPTHWCLLVRENGTMEIYQLPDWRLVFLVKNFPVGQRVLVDSSFGQPTTQGEARREEATRQGELPLVKEVLLVALGSRQSRPYLLVHVDQELLIYEAFPHDSQLGQGNLKVRFKKVPHNINFREKKPKPSKKKAEGGGAEEGAGARGRVARFRYFEDIYGYSGVFICGPSPHWLLVTGRGALRLHPMAIDGPVDSFAPFHNVNCPRGFLYFNRQGELRISVLPAYLSYDAPWPVRKIPLRCTAHYVAYHVESKVYAVATSTNTPCARIPRMTGEEKEFETIERDERYIHPQQEAFSIQLISPVSWEAIPNARIELQEWEHVTCMKTVSLRSEETVSGLKGYVAAGTCLMQGEEVTCRGRILIMDVIEVVPEPGQPLTKNKFKVLYEKEQKGPVTALCHCNGHLVSAIGQKIFLWSLRASELTGMAFIDTQLYIHQMISVKNFILAADVMKSISLLRYQEESKTLSLVSRDAKPLEVYSVDFMVDNAQLGFLVSDRDRNLMVYMYLPEAKESFGGMRLLRRADFHVGAHVNTFWRTPCRGATEGLSKKSVVWENKHITWFATLDGGIGLLLPMQEKTYRRLLMLQNALTTMLPHHAGLNPRAFRMLHVDRRTLQNAVRNVLDGELLNRYLYLSTMERSELAKKIGTTPDIILDDLLETDRVTAHF | – |
